In article PMC4336329 (PLoS ONE, 2015):
The campaign covered roughly 310,000 compounds. About 2,200 (0.71%) showed an effect of 50% or more. Effects have a minus sign here. This is one part of the list.

Biological target: human ether-à-go-go-related gene (hERG) potassium channel (human, UniProt Q12809)
Assay: primary screen, population patch clamp on CHO cells stably expressing hERG

Sequence of human ether-à-go-go-related gene (hERG) potassium channel (Q12809 whole entry, looked up): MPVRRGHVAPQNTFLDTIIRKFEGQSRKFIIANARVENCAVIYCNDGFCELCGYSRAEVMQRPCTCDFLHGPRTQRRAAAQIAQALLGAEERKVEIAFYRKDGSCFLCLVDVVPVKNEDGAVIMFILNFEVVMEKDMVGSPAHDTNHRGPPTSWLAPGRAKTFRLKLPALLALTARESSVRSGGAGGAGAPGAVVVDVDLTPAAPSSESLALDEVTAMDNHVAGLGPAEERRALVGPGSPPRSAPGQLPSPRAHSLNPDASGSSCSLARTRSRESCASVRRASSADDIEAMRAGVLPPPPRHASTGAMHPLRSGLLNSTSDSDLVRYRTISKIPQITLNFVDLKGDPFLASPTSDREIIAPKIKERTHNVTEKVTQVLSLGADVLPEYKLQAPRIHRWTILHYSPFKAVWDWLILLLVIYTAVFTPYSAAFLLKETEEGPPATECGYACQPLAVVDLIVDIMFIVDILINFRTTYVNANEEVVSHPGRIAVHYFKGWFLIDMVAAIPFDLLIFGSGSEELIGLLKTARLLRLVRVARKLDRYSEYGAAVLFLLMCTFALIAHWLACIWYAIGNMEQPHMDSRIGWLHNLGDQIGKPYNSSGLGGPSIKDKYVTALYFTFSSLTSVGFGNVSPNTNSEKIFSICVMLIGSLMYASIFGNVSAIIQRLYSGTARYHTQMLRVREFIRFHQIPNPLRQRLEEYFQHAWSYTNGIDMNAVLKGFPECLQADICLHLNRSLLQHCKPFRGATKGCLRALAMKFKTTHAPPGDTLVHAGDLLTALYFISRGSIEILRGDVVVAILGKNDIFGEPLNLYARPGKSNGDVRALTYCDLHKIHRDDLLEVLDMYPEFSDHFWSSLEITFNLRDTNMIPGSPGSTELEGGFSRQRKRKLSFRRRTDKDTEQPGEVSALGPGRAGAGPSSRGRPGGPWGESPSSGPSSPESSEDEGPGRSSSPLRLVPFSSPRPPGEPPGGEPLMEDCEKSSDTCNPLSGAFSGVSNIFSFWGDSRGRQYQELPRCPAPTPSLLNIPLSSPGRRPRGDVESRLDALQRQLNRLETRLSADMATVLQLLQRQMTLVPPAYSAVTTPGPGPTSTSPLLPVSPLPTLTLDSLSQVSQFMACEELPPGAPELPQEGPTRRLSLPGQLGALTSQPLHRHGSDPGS

SMILES	hERG current change (%, negative = inhibition) at 1uM [%]
O=C1CC(N2CCc3ccccc32)C(=O)N1c1ccc(F)cc1 (stereo not drawn)	7.36
CC1=C(C(=O)OCc2ccccc2)C(c2ccccc2OS(=O)(=O)c2ccc(C)cc2)NC(=O)N1CCCC(=O)O (stereo not drawn)	12.1
C=CCNC(=O)c1onc(CSc2ccncc2)c1C(=O)NCC=C	13.9
CC(C(=O)Nc1ccc(S(=O)(=O)Nc2ncccn2)cc1)N1C(=O)c2ccccc2S1(=O)=O (stereo not drawn)	5.37
O=C(NC1CCCc2ccccc21)c1ccccc1Br (stereo not drawn)	-13.5
COc1ccc(Cl)cc1NC(=O)CN(C)C(=O)c1ccc2n[nH]nc2c1	0.151
O=C(CN1C(=O)c2cccc3cccc(c23)C1=O)N1CCN(c2ccccn2)CC1	-3.98
O=C1CCC(/C=C/c2ccccc2)=NN1	12.7
CCc1c(C)nc(N)nc1N1N=C1SC(C(C)=O)C(C)=O	12
CC(C)(C)OC(=O)NCCC(=O)Oc1ccc2ccc(=O)oc2c1	-7.24
COc1ccc(C(=O)NCCSCc2cccc(Cl)c2)cc1OC	12.7
CCN(CC)c1ccc(NC(=O)CSc2nnc(N)s2)cc1C	9.25
CCN(C(=O)CSc1n[nH]c(-c2cccs2)n1)C1CCS(=O)(=O)C1 (stereo not drawn)	11.8
O=C(CSc1nnc(-c2ccccc2)o1)N1CCc2ccccc2C1	-2.23
COc1c(Cl)ccc(Cl)c1C(=O)OCC(=O)O	10.9
CCCCC1=CC2=CC(=O)C(C)(OC(=O)c3cccs3)C(=O)C2=CO1 (stereo not drawn)	10.4
CCOC(=O)c1sc(NC(=O)CSc2nc3cccnc3n2C)nc1C	17
CCOc1ccc(/C=C2/C(=O)NC(=O)N(CCc3ccc(F)cc3)C2=O)cc1	13.5
C=CCc1ccccc1OCC(O)CNC (stereo not drawn)	16.6
CSc1ccccc1C(=O)C1CCCN(Cc2ccccn2)C1 (stereo not drawn)	5.15
COc1cccc(-n2c(SCC#N)nnc2-c2cnccn2)c1	-19.4
O=C(CN1CCOCC1)Nc1cccc(S(=O)(=O)N2CCCCCC2)c1	3.83

SMILES	hERG current change (%, negative = inhibition) at 1uM [%]
N#CCCn1c(-c2nonc2NC(=O)c2ccccc2Cl)nc2ccccc21	-5.19
CC1=CC(=O)C2=C(C)CC(O)C3C(C)C(=O)OC3C12.O (stereo not drawn)	-4.16
CN(C)c1ccc(S(=O)(=O)NCC(=O)OCC(=O)NC(=O)C2CCCCC2)cc1[N+](=O)[O-]	7.26
CC1CCN(C(=O)Cn2c3ccccc3c3nc4n(c(=O)c32)CCCS4)CC1	10.3
CCOc1ccc(S(=O)(=O)N(C)CCO)cc1-c1nc2c(C(C)(C)C)nn(C)c2c(=O)[nH]1	15.3
CC(C)Cn1c(-c2ccco2)n[nH]c1=S	2.56
COc1ccccc1N(CC(=O)NC1CCCC1)C(=O)CCC(=O)Nc1ccccn1	12
CCOC(=O)c1sc(C)nc1C1CCN(C(=O)OCC)CC1	12.4
O=C(c1ccc2c(c1)OCO2)C1CCCN(C(=O)C2CCOCC2)C1 (stereo not drawn)	5.32
CCCc1cc(=O)[nH]c(SCC(=O)N2CCN(c3ccccc3)CC2)n1	10.1
CCOC(=O)c1cc(CC)sc1N1C(=O)CC(Sc2ncccc2C(=O)O)C1=O (stereo not drawn)	10.7
CCOc1c(C)cnc2c1c(=O)n(Cc1cccc(Cl)c1)c(=O)n2C	-10.6
CCCNC(=O)NC(=O)CSc1nc2cc(C(=O)OC)ccc2c(=O)n1-c1ccccc1	5.05
COc1ccc(CN2C(=O)NC(=O)/C(=C/c3ccoc3)C2=O)cc1	9.03
Cc1cc2oc(=O)cc(CN3CCC(C)CC3)c2cc1C	12.8
Cc1ccc(NC(=O)C2CCN(S(=O)(=O)c3ccc4c(c3)NC(=O)C(C)S4)CC2)c(C)c1 (stereo not drawn)	7.09
CCN(CC)S(=O)(=O)c1ccc(Oc2ccccc2)cc1	-5.84
COc1cccc(/C=N/c2sc(Cc3ccccc3)c(C)c2C(N)=O)c1O	1.25
CCC(=NC1CC1)c1c(O)n(C2CCCCC2)c(=O)[nH]c1=O	-2.82
CCN(CC1COc2ccccc2O1)C(=S)NC1CC2CCC1C2 (stereo not drawn)	3.81
O=C(CSc1nc2ccccc2[nH]1)N1CCN(S(=O)(=O)c2ccc(Cl)cc2)CC1	-3.35
CC(C)[C@H]1CN=C2N(C[C@H](C)NC(=O)CCC3CCCCC3)[C@H](Cc3ccc(O)cc3)CN21	-13

SMILES	hERG current change (%, negative = inhibition) at 1uM [%]
NC(=O)c1ccc(NS(=O)(=O)c2ccc3ccccc3c2)cc1	12.6
Cc1ccc(NS(=O)(=O)c2cccc(C(=O)N3CCCC(C)C3)c2)cc1 (stereo not drawn)	1.26
COCCNC(=O)CN(Cc1ccc(OC)cc1)C(=O)CCC(=O)Nc1nccs1	9.05
Cc1cc2nc(-c3ccccc3)cc(=O)n2[nH]1	13.2
Cc1cccc(NC(=O)c2ccc(OCC3CCCO3)cc2)c1C (stereo not drawn)	7.85
CC(C)NS(=O)(=O)c1ccc2c(c1)oc(=O)n2C	14.2
CCOC(=O)c1nnn2c1nc(SCC(C)=O)c1ccccc12	12.5
CSc1nsc(SCCN2C(=O)c3ccccc3C2=O)n1	-6.04
CCCCC(=O)Nc1ccccc1N1CCOCC1	4.52
O=C(O)c1cnn2c(-c3ccccc3)ccnc12	-3.72
O=c1c2ccccc2c(-c2ccccc2)nn1-c1cc(Cl)cc(Cl)c1	12.2
CCCCN(CC)S(=O)(=O)c1ccc(C(=O)Nc2nnc(-c3ccccc3Cl)o2)cc1	10
Cc1ccc(C(=O)Nc2ccc(CC(=O)O)cc2)o1	-2.68
CS(=O)(=O)N(CC(=O)Nc1cccc([N+](=O)[O-])c1)c1ccccc1	10.1
CN(C)Cc1c(C(=O)N/N=C/c2cccc3ccccc23)nnn1-c1nonc1N	13.7
Cc1cc(C(=O)CSc2nc(N)cc(N)n2)c(C)n1-c1cccc(C(F)(F)F)c1	-13
O=C(CS(=O)CC(=O)N(c1ccccc1)C(C(=O)NC1CCCC1)c1cccs1)Nc1ccc(F)cc1 (stereo not drawn)	8.98
NC(=O)[C@H]1CC2(CC(c3cccc(NC(=O)[C@H]4CCC(=O)N4)c3)=NO2)CN1C(=O)c1cc([N+](=O)[O-])cc([N+](=O)[O-])c1 (stereo partly drawn)	6.11
Cc1ccc(O)c(NC(=O)C2CCCCC2)c1	13.5
S=c1[nH]nc(-c2cc(-c3ccccn3)nc3ccccc23)o1	9.16
CCCCSc1nc(C)cc(NC(=S)Nc2ccc(OC)cc2)n1	-8.68
C=CCn1c(SCc2ccc(C(=O)NCCO)cc2)nc2sc(C)c(C)c2c1=O	-3.47

SMILES	hERG current change (%, negative = inhibition) at 1uM [%]
CCCS(=O)(=O)c1c(S(=O)(=O)CCC)c2c3ccccc3ccn2c1C(=O)OC	2.02
CCC(CC)C(=O)Nc1c2c(nn1-c1ccc(OC)cc1)CS(=O)C2 (stereo not drawn)	3.16
CC(NC(=O)c1ccc(CS(=O)(=O)Cc2ccccc2F)o1)c1ccc2c(c1)OCCO2 (stereo not drawn)	10.8
COc1ccc(C(=O)Nc2ccc(-c3cn4ccsc4n3)cc2)cc1S(=O)(=O)N1CCOCC1	-0.247
O=C(Nc1nccs1)c1cccc2ccccc12	2.03
Cc1c(C(=O)Nc2ccc(C(F)(F)F)cc2)sc2ncn(CC(=O)N3CCN(c4ccccn4)CC3)c(=O)c12	15.9
Cc1cccc(C(=O)Nc2cc(OCc3cccc(F)c3)c(Cl)cc2Cl)c1	-9.98
O=C(O)CNC(=O)c1nc(-c2ccccc2)n(-c2ccccc2)n1	12.9
CCOC(=O)c1cccc(Nc2ncnc3ccc(C)cc23)c1	-3.73
COc1ccc(S(=O)(=O)NCc2cccnc2)cc1C(=O)N1CCCCC1	8.84
COc1ccc(NS(=O)(=O)c2cccc(C(=O)NCc3ccccc3CN3CCCC3)c2)cc1	-12
Cc1cn(C2OC[C@@H](O)[C@@H]2CO)c(=O)[nH]c1=O (stereo partly drawn)	3.67
COc1cc(C(=O)N[C@@H](Cc2c[nH]c3ccccc23)C(=O)O)cc(OC)c1OC	-3.01
CCc1ccc(NC(=O)[C@H](C)NC(=O)C2CCN(C(=O)[C@@H](N)CC(C)C)CC2)cc1.Cl	12
CSc1cccc(NC(=O)Nc2ccc(Cl)cc2)c1	-4.3
O=C(NCc1ccc(F)cc1)C1C2C=CC3(CN(Cc4cccnc4)C(=O)C13)O2 (stereo not drawn)	4.52
CNS(=O)(=O)c1cccc(C(=O)NCC2CCCCC2)c1	15.5
Cc1cc(=O)oc2cc(OCC(=O)N3CCN(c4ccccc4)CC3)c(Cl)cc12	9.94
COc1ccc(C2NC(=O)NC(C)=C2[N+](=O)[O-])cc1OC (stereo not drawn)	3.92
Nc1nc2ccc([N+](=O)[O-])c(N)c2s1	0.509
O=C(O)c1cn2c3c(ccc(Cl)c3c1=O)OCC2	9.87
